In patent publication US10273244B2, “Substituted hexahydropyrrolo[3,4-b]pyrroles and hexahydrocyclopenta[c]pyrroles as dopamine receptor modulators” (INDIVIOR UK LIMITED, priority 2015, dated 2019):

target: human dopamine type 3 receptor (CHO-hD3 membranes) (Homo sapiens (Human), UniProt P35462); settings: displacement of 0.3 nM [3H]-Spiperone
Sequence of UniProt P35462 (P35462 whole entry): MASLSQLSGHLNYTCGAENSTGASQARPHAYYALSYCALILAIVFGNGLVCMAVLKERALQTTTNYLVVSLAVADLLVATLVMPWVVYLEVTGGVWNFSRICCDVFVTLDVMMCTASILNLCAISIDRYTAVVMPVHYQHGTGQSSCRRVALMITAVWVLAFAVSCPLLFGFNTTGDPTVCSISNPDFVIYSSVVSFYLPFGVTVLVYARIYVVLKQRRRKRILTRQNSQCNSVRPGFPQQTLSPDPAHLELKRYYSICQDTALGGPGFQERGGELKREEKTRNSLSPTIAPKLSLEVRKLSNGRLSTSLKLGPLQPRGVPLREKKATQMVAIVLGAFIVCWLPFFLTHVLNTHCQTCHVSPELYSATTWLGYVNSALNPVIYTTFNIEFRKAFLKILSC

SMILES | D3 pKi
Cn1c(OCCCN2CC3CCN(c4ccc(C(F)(F)F)cc4)C3C2)nnc1C1CCOCC1 (centres unmarked) [Example 212, 4-methyl-3-(oxan-4-yl)-5-(3-{1-[4-(trifluoromethyl)phenyl]-octahydro-pyrrolo[3,4-b]pyrrol-5-yl}propoxy)-4H-1,2,4-triazole] | 7.80
Cc1ncoc1-c1nnc(SCCCN2C[C@@H]3CN(c4ccc(C(F)(F)F)cc4)[C@@H]3C2)n1C (single isomer, unassigned) [Example 229, (1R,5S or 1S,5R)-3-(3-{([4-methyl-5-(4-methyl-1,3-oxazol-5-yl)-4H-1,2,4-triazol-3-yl]sulfanyl}propyl)-6-[4-(trifluoromethyl)phenyl]-3,6-diazabicyclo[3.2.0]heptane] | 7.74
Cn1c(SCCCN2CC3CCN(c4ccc(C(F)(F)F)cc4)C3C2)nnc1-c1ccnnc1 (centres unmarked) [Example 86, 4-{4-methyl-5-[(3-{1-[4-(trifluoromethyl)phenyl]-octahydropyrrolo[3,4-b]pyrrol-5-yl}propyl)sulfanyl]-4H-1,2,4-triazol-3-yl}pyridazine] | 7.91
Cn1c(SCCCN2C[C@@H]3CCN(c4ccc(C(F)(F)F)cc4)[C@@H]3C2)nnc1C1CCC(O)CC1 (single isomer, unassigned) [Example 219, 4-[5-({3-[(3aS,6aS or 3aR,6aR)-1-[4-(trifluoromethyl)phenyl]-octahydropyrrolo[2,3-c]pyrrol-5-yl]propyl}sulfanyl)-4-methyl-4H-1,2,4-triazol-3-yl]cyclohexan-1-ol] | 8.67
Cc1ccc(N2CCC3CN(CCCSc4nnc(-c5cnccn5)n4C)CC32)cc1 (centres unmarked) [Example 108, 2-[4-methyl-5-({3-[1-(4-methylphenyl)-octahydropyrrolo[3,4-b]pyrrol-5-yl]propyl}sulfanyl)-4H-1,2,4-triazol-3-yl]pyrazine] | 8.12
Cn1c(SCCCN2CC3CCN(c4ccc(C(F)(F)F)cc4)C3C2)nnc1N1CCOCC1 (centres unmarked) [Example 81, 4-{4-methyl-5-[(3-{1-[4-(trifluoromethyl)phenyl]-octahydropyrrolo[3,4-b]pyrrol-5-yl}propyl)sulfanyl]-4H-1,2,4-triazol-3-yl}morpholine] | 8.40
Cc1ncoc1-c1nnc(SCCCN2CCC3CCN(c4ccc(C(F)(F)F)cc4)C3C2)n1C (centres unmarked) [Example 241, 4-methyl-3-(4-methyl-1,3-oxazol-5-yl)-5-[(3-{1-[4-(trifluoromethyl)phenyl]-octahydro-1H-pyrrolo[2,3-c]pyridin-6-yl}propyl)sulfanyl]-4H-1,2,4-triazole] | 7.01
Cn1c(SCCCN2CC3CCN(c4ccc(F)cc4)C3C2)nnc1-c1ccncn1 (centres unmarked) [Example 139, 4-[5-({3-[1-(4-fluorophenyl)-octahydropyrrolo[3,4-b]pyrrol-5-yl]propyl}sulfanyl)-4-methyl-4H-1,2,4-triazol-3-yl]pyrimidine] | 8.83
Cn1c(SCCCN2CC3CCN(c4ccc(F)cc4)C3C2)nnc1-c1cnccn1 (centres unmarked) [Example 95, 2-[5-({3-[1-(4-fluorophenyl)-octahydropyrrolo[3,4-b]pyrrol-5-yl]propyl}sulfanyl)-4-methyl-4H-1,2,4-triazol-3-yl]pyrazine] | 8.68
Cc1ncoc1-c1nnc(SCCCN2CC3CCCN(c4ccc(C(F)(F)F)cc4)C3C2)n1C (centres unmarked) [Example 231, 4-methyl-3-(4-methyl-1,3-oxazol-5-yl)-5-[(3-{1-[4-(trifluoromethyl)phenyl]-octahydro-1H-pyrrolo[3,4-b]pyridin-6-yl}propyl)sulfanyl]-4H-1,2,4-triazole] | 7.94
Cn1c(SCCCN2CC3CCN(c4cccc(F)c4)C3C2)nnc1-c1cnccn1 (centres unmarked) [Example 100, 2-[5-({3-[1-(3-fluorophenyl)-octahydropyrrolo[3,4-b]pyrrol-5-yl]propyl}sulfanyl)-4-methyl-4H-1,2,4-triazol-3-yl]pyrazine] | 8.34
Cn1c(SCCCN2CC3CCN(c4ccc(C(F)(F)F)nc4)C3C2)nnc1C1CCOCC1 (centres unmarked) [Example 50, 5-[5-(3-{[4-methyl-5-(oxan-4-yl)-4H-1,2,4-triazol-3-yl]sulfanyl}propyl)-octahydropyrrolo[3,4-b]pyrrol-1-yl]-2-(trifluoromethyl)pyridine] | 7.28
COc1ccccc1N1CCC2CN(CCCSc3nnc(-c4cnccn4)n3C)CC21 (centres unmarked) [Example 112, 2-[5-({3-[1-(2-methoxyphenyl)-octahydropyrrolo[3,4-b]pyrrol-5-yl]propyl}sulfanyl)-4-methyl-4H-1,2,4-triazol-3-yl]pyrazine] | 7.78
Cc1cccc(N2CCC3CN(CCCSc4nnc(-c5cnccn5)n4C)CC32)c1 (centres unmarked) [Example 111, 2-[4-methyl-5-({3-[1-(3-methylphenyl)-octahydropyrrolo[3,4-b]pyrrol-5-yl]propyl}sulfanyl)-4H-1,2,4-triazol-3-yl]pyrazine] | 8.39
Cc1ncoc1-c1nnc(SCCCN2C[C@H]3CCN(c4cccc(C#N)c4)[C@H]3C2)n1C.Cl.Cl [Example 11, 3-[(3aR,6aR or 3aS,6aS)-5-(3-{[4-methyl-5-(4-methyl-1,3-oxazol-5-yl)-4H-1,2,4-triazol-3-yl]sulfanyl}propyl)-octahydropyrrolo[2,3-c]pyrrol-1-yl]benzonitrile dihydrochloride] | 8.23
CC(=O)N1CCC(c2nnc(SCCCN3CC4CCN(c5ccc(C(F)(F)F)cc5)C4C3)n2C)CC1 (centres unmarked) [Example 140, 1-(4-{4-methyl-5-[(3-{1-[4-(trifluoromethyl)phenyl]-octahydropyrrolo[3,4-b]pyrrol-5-yl}propyl)sulfanyl]-4H-1,2,4-triazol-3-yl}piperidin-1-yl)ethan-1-one] | 7.81
Cn1c(SCCCN2CC3CCN(c4cccc(C#N)c4)C3C2)nnc1-c1cnccn1 (centres unmarked) [Example 94, 3-[5-(3-{[4-methyl-5-(pyrazin-2-yl)-4H-1,2,4-triazol-3-yl]sulfanyl}propyl)-octahydropyrrolo[3,4-b]pyrrol-1-yl]benzonitrile] | 8.68
Cc1ncoc1-c1nnc(SCCCN2C[C@@H]3CCN(c4ccc(C(F)(F)F)cc4F)[C@@H]3C2)n1C.Cl.Cl [Example 20, 3-({3-[(3aS,6aS)-1-[2-fluoro-4-(trifluoromethyl)phenyl]-octahydropyrrolo[2,3-c]pyrrol-5-yl]propyl}sulfanyl)-4-methyl-5-(4-methyl-1,3-oxazol-5-yl)-4H-1,2,4-triazole] | 8.34
Cc1ncoc1-c1nnc(SCCCN2CC3CN(c4ccc(C(F)(F)F)cc4)C3C2)n1C (centres unmarked) [Example 228, 3-(3-{[4-methyl-5-(4-methyl-1,3-oxazol-5-yl)-4H-1,2,4-triazol-3-yl]sulfanyl}propyl)-6-[4-(trifluoromethyl)phenyl]-3,6-diazabicyclo[3.2.0]heptane] | 7.43
Cn1c(SCCCN2CC3CCN(c4cccnc4)C3C2)nnc1C1CCCCC1 (centres unmarked) [Example 66, 3-(5-{3-[(5-cyclohexyl-4-methyl-4H-1,2,4-triazol-3-yl)sulfanyl]propyl}-octahydropyrrolo[2,3-c]pyrrol-1-yl)pyridine] | 7.94
Cn1c(SCCCN2CC3CCN(c4cnc(C(F)(F)F)cn4)C3C2)nnc1C1CCOCC1 (centres unmarked) [Example 49, 2-[5-(3-{[4-methyl-5-(oxan-4-yl)-4H-1,2,4-triazol-3-yl]sulfanyl}propyl)-octahydropyrrolo[2,3-c]pyrrol-1-yl]-5-(trifluoromethyl)pyrazine] | 7.06
Cc1ncoc1-c1nnc(SCCCN2CC3CCN(c4ccccc4OC(F)(F)F)C3C2)n1C (centres unmarked) [Example 25, 4-methyl-3-(4-methyl-1,3-oxazol-5-yl)-5-[(3-{1-[2-(trifluoromethoxy)phenyl]-octahydropyrrolo[3,4-b]pyrrol-5-yl}propyl)sulfanyl]-4H-1,2,4-triazole] | 8.97
Cn1c(SCCCN2CC3CCN(c4ccc(C(F)(F)F)cc4)C3C2)nnc1C1CCC(O)CC1 (centres unmarked) [Example 218, 4-{4-methyl-5-[(3-{1-[4-(trifluoromethyl)phenyl]-octahydropyrrolo[2,3-c]pyrrol-5-yl}propyl)sulfanyl]-4H-1,2,4-triazol-3-yl}cyclohexan-1-ol] | 8.9
